# From PubChem BioAssay AID588591 (National Center for Advancing Translational Sciences (NCATS), 2011)
# The whole screen tested about 390,000 compounds, of which about 4,700 (1.2%) were called active. The inconclusive results got no clear call from the source; some entries with a clear call stand among them for comparison. Calls follow the shape of the dose curve; as a rule, active = well fitted inhibition curve with a large enough effect; inconclusive = small, poorly fitted or top-dose-only effect, or another doubt; inactive = no such curve, though single readings can be large or run the other way. A potency beside an inconclusive call is a rough fit, not a confirmed value. Some structures have more than one record in an assay (separate samples or runs), and their calls can disagree.
# Biological target: DNA polymerase eta (Homo sapiens) (UniProt Q9Y253)
# Sequence of UniProt Q9Y253 (Q9Y253 whole entry, looked up): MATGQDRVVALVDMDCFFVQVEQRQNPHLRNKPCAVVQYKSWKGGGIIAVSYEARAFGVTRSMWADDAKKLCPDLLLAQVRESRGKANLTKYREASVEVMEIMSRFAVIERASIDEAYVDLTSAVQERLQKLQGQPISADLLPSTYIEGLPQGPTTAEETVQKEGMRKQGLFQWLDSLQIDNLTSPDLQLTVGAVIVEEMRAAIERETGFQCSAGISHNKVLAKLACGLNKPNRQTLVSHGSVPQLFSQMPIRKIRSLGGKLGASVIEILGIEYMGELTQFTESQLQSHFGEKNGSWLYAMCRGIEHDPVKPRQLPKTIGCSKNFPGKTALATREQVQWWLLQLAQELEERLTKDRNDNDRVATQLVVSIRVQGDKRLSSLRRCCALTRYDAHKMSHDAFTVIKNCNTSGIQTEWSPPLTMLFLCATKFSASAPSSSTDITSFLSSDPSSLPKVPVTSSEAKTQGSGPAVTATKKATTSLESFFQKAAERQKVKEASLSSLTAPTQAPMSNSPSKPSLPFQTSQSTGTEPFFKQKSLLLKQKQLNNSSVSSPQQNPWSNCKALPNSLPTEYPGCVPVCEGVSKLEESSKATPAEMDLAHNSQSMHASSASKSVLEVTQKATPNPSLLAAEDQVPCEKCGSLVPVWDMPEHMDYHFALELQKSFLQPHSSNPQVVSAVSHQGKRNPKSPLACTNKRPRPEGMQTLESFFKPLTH
# Experiment: qHTS for Inhibitors of Polymerase Eta
# Conditions: recombinant Pol eta, fluorescent DNA replication assay; series mostly up to 114 µM; activity change, negative = inhibition: at the top concentration
# Method in brief: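 Pol eta at 10 nM preincubated with compounds 15 min at room temperature; reaction started with fluorescent substrate (50 nM final) and read kinetically at 0 and 10 min.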
# % is scaled to controls: 0 for no effect and ±100 for the full control effect; potency is read from the fitted curve at half-maximal effect; tags tell the direction and shape of the fitted curve.
Structure (SMILES),"activity change, negative = inhibition",Potency
COc1ccc(-c2cc(C)nc3c(-c4ccc(OC)c(OC)c4)c(C)nn23)cc1,inactive: -17.3%,
CCCCc1cc(=O)oc2cc(C)c(CN3CCCC3)c(O)c12,,active: 20 µM
C[C@H](CO)N1C[C@H](C)[C@@H](CN(C)S(C)(=O)=O)Oc2c(NC(=O)C3CC3)cccc2C1=O,inactive: -17.3%,
CC(=O)Nc1ccc(OCCOc2ccc(/C=C3\C(=N)N4N=C(C(C)C)SC4=NC3=O)cc2)cc1,,"inconclusive: 20 µM [inhibitor, partial curve, poor fit]"
Cc1ccc(C(C)(C)C)c(OCCN2CCCC2)c1,,"inconclusive: 3.55 µM [inhibitor, partial curve, poor fit]"
CNC(=O)c1cc(Nc2nnc(-c3ccc(O)cc3)c3ccccc23)ccc1OC,,"inconclusive: 17.8 µM [inhibitor, full curve]"
Cn1nc(-c2ccc(OCC(=O)Nc3cccc(C(F)(F)F)c3)cc2)c2ccccc2c1=O,,active: 79.4 µM
CC(C)c1ccc2oc(-c3ccc(Cl)c(NC(=O)c4cccs4)c3)nc2c1,inactive: -10.6%,
C/C(=N\Nc1ccc(C(=O)O)cc1)c1ccc(Br)cc1,,active: 12.6 µM
COc1cc(/C=C2\SC(=S)N(NS(=O)(=O)c3ccccc3)C2=O)ccc1O,,"inconclusive: 79.4 µM [inhibitor, partial curve]"
CCC1CCCCN1S(=O)(=O)c1c(C)n(C)c(=O)n(C)c1=O (centres undefined),,"inconclusive: 25.1 µM [inhibitor, partial curve]"
CC(=O)Nc1cccc(NC(=O)c2cc(-c3ccccn3)nc3ccc(Cl)cc23)c1,,"inconclusive: 17.8 µM [inhibitor, partial curve, poor fit]"
O=C(Nc1nc(-c2ccncc2)cs1)c1ccco1,,"inconclusive: 11.2 µM [inhibitor, partial curve, poor fit]"
Cc1cc2c(c(=O)o1)C(C13C=CC(CC1)C3)C(C#N)=C(N)O2 (centres undefined),,"inconclusive: 15.8 µM [inhibitor, full curve, poor fit]"
O=P(CCCCCCCCCP(=O)(c1ccccc1)c1ccccc1)(c1ccccc1)c1ccccc1,,"inconclusive: 15.8 µM [inhibitor, full curve, poor fit]"
Cc1cc(C(=O)CCC(=O)NCC2COc3ccccc3O2)c(C)s1 (centres undefined),,"inconclusive: 1.12 µM [inhibitor, partial curve, poor fit]"
CC(C(=O)N1CCCCCC1)N(c1ccc(Cl)cc1)S(C)(=O)=O (centres undefined),inactive: -13.9%,
N#Cc1ccccc1NC(=O)COC(=O)CCc1ccccc1,inactive: -22.2%,
Oc1cc(O)c2c(c1)O[C@H](c1ccc(O)c(O)c1)[C@@H](O)C2,,active: 28.2 µM
COc1cccc2c1cc1c(=O)n(CC(=O)N3CCN(c4ccccc4F)CC3)nc(C)n12,inactive: 2.35%,
O=C1/C(=C\c2ccco2)SC(=S)N1c1ccc(O)cc1,inactive: -12.5%,
O=S(=O)(Nc1cccc2c1ccc1cccn12)c1cccs1,,"inconclusive: 28.2 µM [inhibitor, partial curve]"

Structure (SMILES),"activity change, negative = inhibition",Potency
Cc1cc2oc3cc(NCCC4CCCN4C)ccc3c(=O)c2cc1C (centres undefined),,"inconclusive: 56.2 µM [inhibitor, partial curve, poor fit]"
O=C(NC[C@H]1CCCO1)c1cccc2c1C(=O)c1ccc(-c3ccc(F)cc3OCc3ccccc3)cc1S2(=O)=O,inactive: -8.37%,
O=[N+]([O-])c1cccc2nc3ccccc3c(NCCCn3ccnc3[N+](=O)[O-])c12,,"inconclusive: 22.4 µM [inhibitor, partial curve, poor fit]"
CCN(CC)S(=O)(=O)c1cc(-c2nn(C)c(=O)c3ccccc23)ccc1C,,"inconclusive: 10 µM [inhibitor, partial curve]"
COc1ccc(C)cc1Nc1n[n+](-c2ccccc2)c(-c2c(OC)ccc3ccccc23)s1,inactive: -24.8%,
Cc1ccc(C)c(NC(=O)CSc2nnc(-c3n[nH]c4ccccc34)o2)c1,,"inconclusive: 20 µM [inhibitor, partial curve, poor fit]"
Cc1ccc(S(=O)(=O)N2[C@@H](c3ccc(Cl)cc3)C(C(=O)O)=CC[C@H]2c2ccc(C(C)C)cc2)cc1,,"inconclusive: 89.1 µM [inhibitor, single point]"
N=c1oc2cc(O)ccc2cc1C(=O)Nc1ccc(Cl)cc1,,active: 79.4 µM
O=C(Nc1nnc(C2CC2)s1)C1Cc2ccccc2CN1S(=O)(=O)c1cccs1 (centres undefined),,active: 7.08 µM
COc1cccc(/C=C/C(=O)c2ccc(NS(=O)(=O)c3ccc(C)cc3)cc2)c1,,"inconclusive: 12.6 µM [inhibitor, partial curve, poor fit]"
COc1ccc(C)cc1NC(=O)CSc1nc2scc(C)c2c(=O)[nH]1,inactive: -1.16%,
Cc1cc(/C=C(/C#N)c2nc3ccccc3[nH]2)c(C)n1-c1ccccc1C(=O)O,,active: 17.8 µM
S=C1NC[C@H](Cc2ccccc2)N1CCCCC1CCCCC1,,"inconclusive: 70.8 µM [inhibitor, partial curve, poor fit]"
Cc1ccc(C)c(N2C(=N)S/C(=C\c3ccc(-c4ccccc4C(=O)O)o3)C2=O)c1,,active: 22.4 µM
O=C(COC(=O)c1sc2ccccc2c1Cl)Nc1ncc(Cl)cc1Cl,,"inconclusive: 14.1 µM [inhibitor, full curve, poor fit]"
c1ccc(CN2CCN(CCOCCOc3ccc4c(c3)CCC4)CC2)cc1,,"inconclusive: 11.2 µM [inhibitor, partial curve, poor fit]"
COc1ccc(C(=O)N2CC(=O)Nc3ccc(C)cc3C2c2ccccc2)c(OC)c1 (centres undefined),,"inconclusive: 100 µM [inhibitor, partial curve, poor fit]"
Cc1sc2nc(SCC(=O)Nc3cccc(S(N)(=O)=O)c3)[nH]c(=O)c2c1C,,"inconclusive: 25.1 µM [inhibitor, partial curve, poor fit]"
Cc1ccc(-c2csc3ncnc(Oc4ccc5c(C)cc(=O)oc5c4)c23)cc1,,"inconclusive: 31.6 µM [inhibitor, single point]"
O=C(O)COc1ccc(Br)cc1/C=N/O,,active: 11.2 µM
CCC(CC)=N/N=C/c1c(O)n(CC)c2cc(C3=NNC(=O)CC3)ccc12,,"inconclusive: 31.6 µM [inhibitor, single point]"
CCOC(=O)c1ccc(N2CCN(c3ccc(F)cc3)CC2)c(NC(=O)Nc2cccc(OC)c2)c1,,"inconclusive: 100 µM [inhibitor, partial curve, poor fit]"

Structure (SMILES),"activity change, negative = inhibition",Potency
COc1cccc(/C=N/Nc2nn3cnnc3c3ccccc23)c1O,,"inconclusive: 17.8 µM [inhibitor, partial curve]"
COc1ccc(S(=O)(=O)NCCc2csc3nc(-c4ccc(Cl)cc4)nn23)cc1C,inactive: -25.8%,
O=C(CSc1ccc2nnc(-c3cccc(F)c3)n2n1)NCc1ccco1,inactive: -0.107%,
COc1ccc(S(=O)(=O)/N=C2/NC(=O)/C(=C\c3cc(OC)c(OC)cc3[N+](=O)[O-])S2)cc1,inactive: -20.3%,
Cc1ccc(NC(=O)C2CCCN2S(=O)(=O)c2ccc3nc(-c4ccccc4)[nH]c3c2)cc1F (centres undefined),,active: 79.4 µM
CNC(=O)c1oc(-c2ccc(Cl)cc2)nc1C,inactive: -8.03%,
COc1cc(C(=O)NCCSc2ccc(F)cc2)cc(OC)c1OC,inactive: 5.16%,
Cn1c2nc(=O)n(-c3ccccc3)c(=O)c-2nc2c1CCCC2,,"inconclusive: 50.1 µM [inhibitor, partial curve, poor fit]"
C#CCN(C[C@H]1[C@H](OC(=O)NCC2CCCCC2)[C@H](OC(=O)NCC2CCCCC2)C[C@@H](C(=O)OC)[C@H]1C(=O)OC)S(=O)(=O)c1ccc(C)cc1,,"inconclusive: 12.6 µM [inhibitor, partial curve, poor fit]"
Cc1c([N+](=O)[O-])cc(C(=O)Oc2ccc(Br)cc2C(=S)N2CCCCC2)cc1[N+](=O)[O-],,"inconclusive: 12.6 µM [inhibitor, partial curve]"
O=C(CSc1nnc(-c2cccc(S(=O)(=O)N3CCCC3)c2)n1-c1ccccc1)Nc1cccc(C(=O)O)c1,inactive: 2.93%,
COc1cc(/C=C/C(=O)OCC(=O)Nc2cccc(Oc3ccccc3)c2)ccc1O,,"inconclusive: 35.5 µM [inhibitor, partial curve, poor fit]"
CC1Cc2cc(/C(O)=C3/C(=O)C(=O)N(Cc4ccco4)C3c3cccs3)ccc2O1 (centres undefined),,"inconclusive: 31.6 µM [inhibitor, partial curve, poor fit]"
O=C(COC(=O)C1CCCCC1)Nc1ccc(N2CCCCC2)cc1,,"inconclusive: 35.5 µM [inhibitor, partial curve, poor fit]"
CC(=O)Nc1ccc(S(=O)(=O)N2C(C)CCCC2C)cc1 (centres undefined),,"inconclusive: 44.7 µM [inhibitor, partial curve, poor fit]"
N#CCc1c(C#N)c(N)nc(N2CCN(S(=O)(=O)c3ccccc3)CC2)c1C#N,,"inconclusive: 20 µM [inhibitor, partial curve, poor fit]"
CCCCN(CCCC)CCNC(=O)c1cn(CC)c2ccc(S(=O)(=O)N3CCc4ccccc4C3)cc2c1=O,,"inconclusive: 50.1 µM [inhibitor, partial curve, poor fit]"
COC(=O)C1=CO[C@@H](O[C@@H]2OC(CO)[C@@H](O)[C@@H](O)[C@@H]2O)C2C1CC[C@]2(C)O (some centres undefined),inactive: -15.6%,
COc1cccc(-c2nnc(Nc3nc4c(F)cccc4s3)o2)c1,,"inconclusive: 79.4 µM [inhibitor, partial curve, poor fit]"
CCC1=NN2C(=N)/C(=C/c3ccc(OS(=O)(=O)c4ccccc4)c(OC)c3)C(=O)N=C2S1,,"inconclusive: 89.1 µM [inhibitor, partial curve, poor fit]"
